Among the data in paper PMC3722167 are binding values, retold here.

By UniProt entry, the sequences of proteins in these tests, tags left out.
UniProt Q8WWF6: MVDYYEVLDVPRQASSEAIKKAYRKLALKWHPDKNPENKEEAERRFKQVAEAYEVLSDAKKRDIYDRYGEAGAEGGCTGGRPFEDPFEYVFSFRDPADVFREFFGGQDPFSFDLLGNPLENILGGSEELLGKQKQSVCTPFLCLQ
UniProt P18850: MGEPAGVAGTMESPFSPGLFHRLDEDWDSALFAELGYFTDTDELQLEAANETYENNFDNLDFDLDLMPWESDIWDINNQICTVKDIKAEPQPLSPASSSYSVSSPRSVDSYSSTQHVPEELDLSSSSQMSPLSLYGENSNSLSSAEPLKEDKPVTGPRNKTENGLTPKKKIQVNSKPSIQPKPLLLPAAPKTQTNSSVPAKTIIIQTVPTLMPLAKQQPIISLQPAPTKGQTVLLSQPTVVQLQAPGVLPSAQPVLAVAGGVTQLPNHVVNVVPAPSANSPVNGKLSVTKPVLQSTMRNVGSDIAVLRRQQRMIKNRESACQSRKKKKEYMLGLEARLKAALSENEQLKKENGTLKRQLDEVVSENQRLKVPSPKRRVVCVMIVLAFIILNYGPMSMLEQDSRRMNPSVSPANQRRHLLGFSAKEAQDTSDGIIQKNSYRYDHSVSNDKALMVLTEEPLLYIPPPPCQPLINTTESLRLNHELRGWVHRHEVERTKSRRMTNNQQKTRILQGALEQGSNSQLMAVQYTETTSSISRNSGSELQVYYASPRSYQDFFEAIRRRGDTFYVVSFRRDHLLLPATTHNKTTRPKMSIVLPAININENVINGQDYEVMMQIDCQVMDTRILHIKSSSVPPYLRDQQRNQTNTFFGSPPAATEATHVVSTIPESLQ
UniProt P0DMV8: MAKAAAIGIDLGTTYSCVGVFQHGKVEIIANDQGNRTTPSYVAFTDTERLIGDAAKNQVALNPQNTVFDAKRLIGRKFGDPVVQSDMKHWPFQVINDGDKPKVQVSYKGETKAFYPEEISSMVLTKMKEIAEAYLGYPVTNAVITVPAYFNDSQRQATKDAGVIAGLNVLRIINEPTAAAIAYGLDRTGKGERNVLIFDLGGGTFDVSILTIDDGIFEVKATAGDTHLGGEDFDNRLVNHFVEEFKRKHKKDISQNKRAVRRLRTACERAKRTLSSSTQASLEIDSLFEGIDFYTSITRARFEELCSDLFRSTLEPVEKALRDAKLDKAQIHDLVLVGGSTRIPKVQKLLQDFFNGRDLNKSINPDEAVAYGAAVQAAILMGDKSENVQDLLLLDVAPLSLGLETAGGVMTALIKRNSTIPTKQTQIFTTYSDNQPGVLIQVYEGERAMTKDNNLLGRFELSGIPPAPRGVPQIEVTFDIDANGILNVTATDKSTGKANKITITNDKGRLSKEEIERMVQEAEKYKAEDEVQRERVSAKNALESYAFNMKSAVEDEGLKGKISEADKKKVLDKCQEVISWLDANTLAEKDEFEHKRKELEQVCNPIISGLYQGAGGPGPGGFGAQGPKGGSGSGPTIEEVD

No constants are given. Whether binding was seen depends on the method and setting. Binding seen in cells or lysates may run through a third protein. Some entries that bind do so weakly or less than the wild type.

For experiment [1], the target named is endogenous DNAJB3 (human (endogenous in HEK293)) (UniProt Q8WWF6). Briefly: co-IP; 500 μg lysate of untransfected HEK293 cells; immunoprecipitation with anti-DNAJB3 or anti-HSP-72 antibody; Western blot.
The target in experiment [2] is FLAG-tagged ATF-6 (pCMV-ATF-6) (UniProt P18850). Briefly: co-IP; 500 μg lysate of transfected HEK-293 cells (50 mM Tris-HCl pH 7.4, 150 mM NaCl, 1 mM EDTA, 1% Triton X-100) on anti-FLAG M2 agarose beads overnight at 4°C; four washes; elution with 3xFLAG peptide; Western blot for JNK, IKKβ and HSP-72. Background: A western blot detects proteins with antibodies after separation by electrophoresis.

Experiment [3] addresses Myc-FLAG-tagged human DNAJB3 (pCMV-DNAJB3) (human) (UniProt Q8WWF6). Described as above.
The target of experiment [4] is HSP-72 (the inducible HSP-70) (human (endogenous in HEK-293)) (UniProt P0DMV8). Briefly: co-IP; 500 μg lysate of untransfected HEK293 cells; immunoprecipitation with anti-DNAJB3 or anti-HSP-72 antibody; Western blot.

Regarding “HSP-72 (the inducible HSP-70) (from UniProt P0DMV8 1-641)”, the binding result in experiment [1] is “binds”; in experiment [2], “no binding”; in experiment [3], “binds”.
Take “endogenous DNAJB3 (from UniProt Q8WWF6 1-145)”: the binding result in experiment [4] is on record as “binds”.

B1: inhibitor of κB kinase-β (IKKβ) (protein, UniProt O14920 1-756)
chain: MSWSPSLTTQTCGAWEMKERLGTGGFGNVIRWHNQETGEQIAIKQCRQELSPRNRERWCLEIQIMRRLTHPNVVAARDVPEGMQNLAPNDLPLLAMEYCQGGDLRKYLNQFENCCGLREGAILTLLSDIASALRYLHENRIIHRDLKPENIVLQQGEQRLIHKIIDLGYAKELDQGSLCTSFVGTLQYLAPELLEQQKYTVTVDYWSFGTLAFECITGFRPFLPNWQPVQWHSKVRQKSEVDIVVSEDLNGTVKFSSSLPYPNNLNSVLAERLEKWLQLMLMWHPRQRGTDPTYGPNGCFKALDDILNLKLVHILNMVTGTIHTYPVTEDESLQSLKARIQQDTGIPEEDQELLQEAGLALIPDKPATQCISDGKLNEGHTLDMDLVFLFDNSKITYETQISPRPQPESVSCILQEPKRNLAFFQLRKVWGQVWHSIQTLKEDCNRLQQGQRAAMMNLLRNNSCLSKMKNSMASMSQQLKAKLDFFKTSIQIDLEKYSEQTEFGITSDKLLLAWREMEQAVELCGRENEVKLLVERMMALQTDIVDLQRSPMGRKQGGTLDDLEEQARELYRRLREKPRDQRTEGDSQEMVRLLLQAIQSFEKKVRVIYTQLSKTVVCKQKALELLPKVEEVVSLMNEDEKTVVRLQEKRQKELWNLLKIACSKVRGPVSGSPDSMNASRLSQPGQLMSQPSTASNSLPEPAKKSEELVAEAHNLCTLLENAIQDTVREQDQSFTALDWSWLQTEEEEHSCLEQAS
Turning to B1, the binding entry in experiment [2] is on record as “no binding”; in experiment [3], “binds”.
